43 compounds from paper PMC4336329 (PLoS ONE, 2015) can be followed below.

Out of some 310,000 compounds screened, about 14,000 (4.5%) showed an effect of 50% or more. Effects have a minus sign here. Some of the results follow.
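Also: peak tail current of the secondary pulse compared with the same well before compound.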

This test deals with human ether-à-go-go-related gene (hERG) potassium channel (human, UniProt Q12809). The experiment in a line: primary screen, population patch clamp on CHO cells stably expressing hERG.
human ether-à-go-go-related gene (hERG) potassium channel, sequence (Q12809 whole entry, looked up): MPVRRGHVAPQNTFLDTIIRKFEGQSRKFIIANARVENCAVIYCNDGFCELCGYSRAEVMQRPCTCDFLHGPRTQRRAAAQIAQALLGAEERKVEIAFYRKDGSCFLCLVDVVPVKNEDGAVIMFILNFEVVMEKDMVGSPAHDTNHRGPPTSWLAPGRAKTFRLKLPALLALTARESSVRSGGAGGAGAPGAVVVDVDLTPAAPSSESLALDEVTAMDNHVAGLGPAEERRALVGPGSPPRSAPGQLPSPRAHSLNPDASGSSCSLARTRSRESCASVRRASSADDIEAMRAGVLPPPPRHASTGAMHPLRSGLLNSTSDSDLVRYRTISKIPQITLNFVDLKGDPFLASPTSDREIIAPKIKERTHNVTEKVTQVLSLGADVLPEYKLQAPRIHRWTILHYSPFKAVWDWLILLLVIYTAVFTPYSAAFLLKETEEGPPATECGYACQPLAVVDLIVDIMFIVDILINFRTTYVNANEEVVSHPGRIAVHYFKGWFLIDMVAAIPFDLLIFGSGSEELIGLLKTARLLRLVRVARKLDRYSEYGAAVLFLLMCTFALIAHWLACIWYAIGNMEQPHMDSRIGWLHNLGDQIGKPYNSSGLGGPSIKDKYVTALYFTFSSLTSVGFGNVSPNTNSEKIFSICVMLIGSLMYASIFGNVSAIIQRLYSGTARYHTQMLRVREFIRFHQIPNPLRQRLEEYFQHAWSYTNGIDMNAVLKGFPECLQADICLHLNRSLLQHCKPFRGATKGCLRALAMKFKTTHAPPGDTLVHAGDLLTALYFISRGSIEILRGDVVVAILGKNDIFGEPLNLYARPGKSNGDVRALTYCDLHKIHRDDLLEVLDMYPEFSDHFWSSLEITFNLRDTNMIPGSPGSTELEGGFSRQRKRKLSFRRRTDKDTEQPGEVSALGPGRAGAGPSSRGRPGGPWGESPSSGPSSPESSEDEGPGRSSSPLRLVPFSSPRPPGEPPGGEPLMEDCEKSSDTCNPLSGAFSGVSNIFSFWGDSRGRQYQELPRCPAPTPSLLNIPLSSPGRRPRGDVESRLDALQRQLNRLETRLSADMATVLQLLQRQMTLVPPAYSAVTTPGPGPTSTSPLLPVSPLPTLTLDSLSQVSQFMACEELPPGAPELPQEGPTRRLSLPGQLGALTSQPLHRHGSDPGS
As to `COCCN(C(=S)Nc1cccc(OC)c1)C1CCN(C(C)=O)CC1`, the “hERG current change (%, negative = inhibition) at 10uM” value was 9.94%.
In the case of `COc1ccc(C2NC(c3ccc(OC)cc3OC)C(C)C(=O)C2C)c(OC)c1.O=C(O)C(=O)O` (stereo not shown) it was 46.3%; in that of `O=C(Cc1ccccc1)Nc1ccc(NC(=O)c2cccs2)c(Cl)c1`, 19.3%.
In the case of `CN(CC(=O)Nc1cccc(F)c1)C(=O)c1cc([N+](=O)[O-])ccc1N1CCCCC1` it was 10.9%; in that of `N=c1c(-c2nc3ccccc3[nH]2)cc(C(=O)c2cccs2)nn1-c1ccc(Cl)cc1`, 8.51%; in that of `O=C(O)CCCn1cc(NC(=O)COc2cc(F)ccc2[N+](=O)[O-])cn1`, 16.3%.
In the case of `CC(C)(C)c1cc(NC(=O)CSc2nnc(NCc3ccccc3)s2)n(-c2ccccc2)n1` it was -50.1%.
With `CN(CC(=O)NCc1ccc(Cl)cc1)S(=O)(=O)c1cccc2cccnc12`, the “hERG current change (%, negative = inhibition) at 10uM” value is -32.4%.
In the case of `Cc1cc(C(=O)NCCCN2CCN(c3cc(Cl)ccc3C)CC2)n(-c2ccccc2)n1` it was -89.2%; in that of `Cc1cc(C)c(NC(=O)CN(C)C(=O)CCC(=O)c2ccc(C)s2)c(C)c1`, 4.04%.
In the case of `O=C(OCc1ccc(F)cc1)c1cccnc1Cl` it was -7.94%; in that of `COc1ccc(NC(=O)CS(=O)(=O)c2ccc(C)cc2)c(OC)c1`, 0.382%; in that of `Cc1cc(NCc2cccnc2)no1`, 12.6%.
With `COC(=O)C1=C(c2cccc(OCc3ccccc3)c2)C[C@@H]2CC[C@H]1N2C(=O)NCCCOC(C)C` the figure was -7.93%; with `COc1ccc2cc(C#N)c(SCC(=O)Nc3nonc3C)nc2c1`, 4.53%.
As for `COc1cc(/C=C/C(=O)Nc2cc(S(=O)(=O)N3CCOCC3)ccc2N2CCCC2)cc(OC)c1OC`, the “hERG current change (%, negative = inhibition) at 10uM” value is recorded as 24%.
As for `O=C(COC(=O)C1CC2C=CC1C2)NCc1ccco1` (stereo not shown), the “hERG current change (%, negative = inhibition) at 10uM” value was -2.31%.
With `CCc1cccc(NC(=O)Cn2c(=O)n(CCC(=O)NCC3CCCO3)c(=O)c3cc(OC)c(OC)cc32)c1` (stereo not shown) the figure was 2.65%; with `Cn1nnc2c(NCc3ccco3)nccc21`, 1.71%; with `O=C(/C(=C/c1ccccc1Cl)c1ccccc1)N1CCOCC1`, -3.84%.
Consider `c1ccc(CCc2cn(C[C@H]3CC[C@@H]([C@@H]4CC[C@H](Cn5cc(CCc6ccccc6)nn5)O4)O3)nn2)cc1`, for which the “hERG current change (%, negative = inhibition) at 10uM” value is recorded as -38.2%.
Consider `Cc1cc(C(=O)COC(=O)c2ccc[nH]c2=O)c(C)n1-c1ccccc1`, for which the “hERG current change (%, negative = inhibition) at 10uM” value was found to be 0.679%.
In the case of `CCOc1ccc(NC(=O)c2ccc3c(=O)n4c(nc3c2)CCCCC4)cc1` it was 19.5%; in that of `COc1nc(-c2ccccc2)cc(-c2ccccc2)n1`, -14.7%; in that of `CC(Sc1cccc(C(F)(F)F)c1)C(=O)NC(N)=O` (stereo not shown), 16%.
Take `O=C(NCc1ccccn1)C(C(=O)c1cccc([N+](=O)[O-])c1)n1cc(Cl)ccc1=O` (stereo not shown): the “hERG current change (%, negative = inhibition) at 10uM” value was 26.2%.
With `COc1ccc(C(=O)Nc2ccccc2C(=O)Nc2ccncc2)cc1`, the “hERG current change (%, negative = inhibition) at 10uM” value is -0.689%.
Take `Cc1ccc(Nc2nnc(SCC(=O)N(C)C3CCS(=O)(=O)C3)s2)cc1` (stereo not shown): the “hERG current change (%, negative = inhibition) at 10uM” value was -3.48%.
In the case of `COC(=O)c1sccc1-n1cccc1C(=O)C(=O)N1CCCCC1` it was 7.22%; in that of `O=C(c1cc2c(s1)CCCC2)N1CCC2(CC1)OCCO2`, -7.75%.
`CCCCOc1ccc(Nc2cc(Cl)ccc2C(=O)O)cn1`: the “hERG current change (%, negative = inhibition) at 10uM” value is given as 23.5%.
For the compound `C=CCn1c(CNC(=O)c2cccs2)n[nH]c1=S`, the “hERG current change (%, negative = inhibition) at 10uM” value is on record as 15.5%.
With `CC(Sc1nc(N2CCOCC2)c2c(c1C#N)CC(C)(C)OC2)C(=O)O` (stereo not shown) the figure was 25.8%.
With `Cc1cc(C)cc(C(=O)Oc2cc(C)[nH]c(=O)c2[N+](=O)[O-])c1` the figure was 24.6%.
In the case of `COc1cccc(-n2c(N)c(-c3nc4ccccc4[nH]3)sc2=S)c1`, the “hERG current change (%, negative = inhibition) at 10uM” value stood at 1.42%.
With `Cc1cccc(N2CCN(C(=O)c3nn(C)c4c3CS(=O)(=O)c3ccccc3-4)CC2C)c1` (stereo not shown) the figure was -46.2%; with `COc1ccc(N2C(=O)c3cc4ccccc4cc3C2=O)cc1`, 2.74%.
For `Cc1ccc(S(=O)(=O)c2nc(NCc3ccc4c(c3)OCO4)sc2Cl)cc1`, the “hERG current change (%, negative = inhibition) at 10uM” value is recorded as -1.71%.
Consider `COc1c(O)ccc2c1CN1CCc3cc4c(cc3C1C2)OCO4` (stereo not shown), for which the “hERG current change (%, negative = inhibition) at 10uM” value is on record as -22%.
With `COc1ccc(OC)c(N(CC(=O)Nc2cccc(C(F)(F)F)c2)S(C)(=O)=O)c1` the figure was 3.55%; with `O=C(Cc1ccc(-n2c(=S)[nH]c3ccccc3c2=O)cc1)N1CCN(c2ccccc2)CC1`, 8.11%; with `Cc1cc(Br)ccc1NC(=O)CN(C)C(=O)C1CCN(C(=O)c2ccc(F)cc2)CC1`, -65.1%.
In the case of `COc1ccc(Nc2nc(NCc3ccco3)nc(N)c2[N+](=O)[O-])cc1`, the “hERG current change (%, negative = inhibition) at 10uM” value was 20.3%.
